From the supplement of paper PMC12217912 come the findings set out here.

B1: TEV protease; numbered along this chain (parent)
chain: MGESLFKGPRDYNPISSSICHLTNESDGHTTSLYGIGFGPFIITNKHLFRRNNGTLVVQSLHGVFKVKDTTTLQQHLVDGRDMIIIRMPKDFPPFPQKLKFREPQREERICLVTTNFQTKSMSSMVSDTSCTFPSGDGIFWKHWIQTKDGQCGSPLVSTRDGFIVGIHSASNFTNTNNYFTSVPKNFMELLTNQEAQQWVSGWRLNADSVLWGGHKVFMVKPEEPFQPVKEATQL

Variants of B1 are the subject of the assay. As to the kind of experiment: raw area under fraction-flipped curve 0-4 h after induction (AUC4h, not background-subtracted), DNA-recorder readout of cleavage of the substrate (dimensionless); higher = more cleavage of the substrate by the protease variant. To be noted: temperature: 34 °C; time window: 0-4 h after rhamnose induction.

Some of the results follow. The full chains were built here from the parent and the listed change. Inactive controls read about 0.05.
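Further: Bxb1 expression induced with 0.2% (w/v) L-rhamnose at OD600 near 0.5, cultures sampled hourly, flipped fraction per protease–substrate barcode pair counted by paired-end Illumina sequencing.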

In the case of MGESLFKGPRDYNPISSSICHLTNESDGHTTSLYGIGFGPFIITNKHLFRRNNGTLVVQSLHGVFKVKDTTTLQQHLVDGRDMIIIAMPKDFPPFPQKLKFREPQREERICLVTTNFQTKSMSSMVSDTSCTFPSGDGIFWKHWIQTKDGQCGSPLVSTRDGFIVGIHSASNFTNTNNYFTSVPKNFMELLTNQEAQQWVSGWRLNADSVLWGGHKVFMVKPEEPFQPVKEATQL [R87A], the “area with substrate ENLDFQS” value amounted to 0.0571, the “area with substrate ENLFFQS” value is 0.0772, the “area with substrate ENLGFQS” value was determined as 0.0791 and the “area with substrate ENLHFQS” value was 0.0692. The “area with substrate ENLKFQS” value was 0.0846, the “area with substrate ENLLFQS” value was 0.0968, the “area with substrate ENLMFQS” value was found to be 0.0819 and the “area with substrate ENLNFQS” value is 0.0634. For the same variant, the “area with substrate ENLPFQS” value was 0.0687, the “area with substrate ENLQFQS” value was 0.0539, the “area with substrate ENLSFQS” value stood at 0.0718 and the “area with substrate ENLTFQS” value is 0.07.

On to MGESLFKGPRDYNPISSSICHLTNESDGHTTSLYGIGFGPFIITNKHLFRRNNGTLVVQSLHGVFKVKDTTTLQQHLVDGRDMIIIRMPKDFPPFPQKLKFREPQREERICLVTTNFPTKSMSSMVSDTSCTFPSGDGIFWKHWIQTKDGQCGSPLVSTRDGFIVGIHSASNFTNTNNYFTSVPKNFMELLTNQEAQQWVSGWRLNADSVLWGGHKVFMVKPEEPFQPVKEATQL [Q118P], for which the “area with substrate ENLDFQS” value worked out at 0.0841, the “area with substrate ENLEFQS” value is 0.0455, the “area with substrate ENLFFQS” value amounted to 0.0893 and the “area with substrate ENLGFQS” value came to 0.0549. The “area with substrate ENLHFQS” value was 0.0693, the “area with substrate ENLIFQS” value came to 0.0906, the “area with substrate ENLKFQS” value is 0.0783 and the “area with substrate ENLLFQS” value was 0.08. The “area with substrate ENLNFQS” value turned out to be 0.0616, the “area with substrate ENLRFQS” value worked out at 0.0745 and the “area with substrate ENLSFQS” value was 0.0692.

As to MGESLFKGPRDYNPISSSICHLTNESDGHTTSLYGIGFGPFIITNKHLFRRNNGTLVVQSLHGVFKVKDTTTLQQHLVDGRDMIIIRMPKDIPPFPQKLKFREPQREERICLVTTNFQTKSMSSMVSDTSCTFPSGDGIFWKHWIQTKDGQCGSPLVSTRDGFIVGIHSASNFTNTNNYFTSVPKNFMELLTNQEAQQWVSGWRLNADSVLWGGHKVFMVKPEEPFQPVKEATQL [F92I], the “area with substrate ENLDFQS” value worked out at 0.0627, the “area with substrate ENLEFQS” value was found to be 0.111, the “area with substrate ENLFFQS” value was 0.08 and the “area with substrate ENLGFQS” value was 0.0617. Also, the “area with substrate ENLHFQS” value was determined as 0.0692, the “area with substrate ENLKFQS” value was 0.0714, the “area with substrate ENLLFQS” value amounted to 0.0823 and the “area with substrate ENLMFQS” value was determined as 0.0665. For the same variant, the “area with substrate ENLNFQS” value stood at 0.0564, the “area with substrate ENLQFQS” value worked out at 0.0641, the “area with substrate ENLRFQS” value was 0.0659 and the “area with substrate ENLSFQS” value came out at 0.0526.

As for MGESLFKGPRDYNPISSSICHLTNESDGHTTSLYGIGFGPFIITNKHLFRRNNGTLVVQSLHGVFKVKDTTTLQQHLVDGRDMIIIRMPKDFPPFPQKGKFREPQREERICLVTTNFQTKSMSSMVSDTSCTFPSGDGIFWKHWIQTKDGQCGSPLVSTRDGFIVGIHSASNFTNTNNYFTSVPKNFMELLTNQEAQQWVSGWRLNADSVLWGGHKVFMVKPEEPFQPVKEATQL [L99G], the “area with substrate ENLDFQS” value came to 0.0686, the “area with substrate ENLEFQS” value was found to be 0.0504, the “area with substrate ENLFFQS” value was 0.0838 and the “area with substrate ENLMFQS” value worked out at 0.0648. Besides, the “area with substrate ENLPFQS” value was 0.0763, the “area with substrate ENLQFQS” value was 0.0488 and the “area with substrate ENLRFQS” value is 0.0557.

For MGESLFKGPRDYNPISSSICHLTNESDGHTTSLYGIGFGPFIITNKHLFRRNNGTLVVQSLHGVFKVKDTTTLQQHLVDGRDMIIIRMPPDFPPFPQKLKFREPQREERICLVTTNFQTKSMSSMVSDTSCTFPSGDGIFWKHWIQTKDGQCGSPLVSTRDGFIVGIHSASNFTNTNNYFTSVPKNFMELLTNQEAQQWVSGWRLNADSVLWGGHKVFMVKPEEPFQPVKEATQL [K90P], the “area with substrate ENLDFQS” value was 0.066, the “area with substrate ENLFFQS” value amounted to 0.0824, the “area with substrate ENLHFQS” value amounted to 0.0757 and the “area with substrate ENLIFQS” value amounted to 0.0919. Besides, the “area with substrate ENLLFQS” value turned out to be 0.0553, the “area with substrate ENLQFQS” value is 0.065, the “area with substrate ENLRFQS” value amounted to 0.0801 and the “area with substrate ENLSFQS” value was determined as 0.0766. Further, the “area with substrate ENLWFQS” value is 0.063.

With MGESLFKGPRDYNPISSSICHLTNESDGHTTSLYGIGFGPFIITNKHLFRRNNGTLVVQSLHGVFKVKDTTTLQQHLVDGRDMIIIRMPKDFPPFPQKLKFREPQREFRICLVTTNFQTKSMSSMVSDTSCTFPSGDGIFWKHWIQTKDGQCGSPLVSTRDGFIVGIHSASNFTNTNNYFTSVPKNFMELLTNQEAQQWVSGWRLNADSVLWGGHKVFMVKPEEPFQPVKEATQL [E108F], the “area with substrate ENLDFQS” value was determined as 0.0624, the “area with substrate ENLEFQS” value is 0.0654, the “area with substrate ENLFFQS” value is 0.0965 and the “area with substrate ENLHFQS” value worked out at 0.0625. In addition, the “area with substrate ENLNFQS” value turned out to be 0.0421 and the “area with substrate ENLWFQS” value turned out to be 0.0489.

Consider MGESLFKGPRDYNPISSSICHLTNESDGHTTSLYGIGFGPFIITNKHLFRRNNGTLVVQSLHGVFKVKDTTTLQQHLVDGRDMIIIRMPKDFVPFPQKLKFREPQREERICLVTTNFQTKSMSSMVSDTSCTFPSGDGIFWKHWIQTKDGQCGSPLVSTRDGFIVGIHSASNFTNTNNYFTSVPKNFMELLTNQEAQQWVSGWRLNADSVLWGGHKVFMVKPEEPFQPVKEATQL [P93V], for which the “area with substrate ENLDFQS” value stood at 0.0532, the “area with substrate ENLHFQS” value was found to be 0.042, the “area with substrate ENLIFQS” value turned out to be 0.0821 and the “area with substrate ENLMFQS” value was found to be 0.0782. In addition, the “area with substrate ENLNFQS” value was found to be 0.065, the “area with substrate ENLPFQS” value was found to be 0.0585, the “area with substrate ENLQFQS” value is 0.0586 and the “area with substrate ENLSFQS” value was determined as 0.0665. Further, the “area with substrate ENLTFQS” value was 0.0616 and the “area with substrate ENLVFQS” value came to 0.0789.

For MGESLFKGPRDYNPISSSICHLTNESDGHTTSLYGIGFGPFIITNKHLFRRNNGTLVVQSLHGVFKVKDTTTLQQHLVDSRDMIIIRMPKDFPPFPQKLKFREPQREERICLVTTNFQTKSMSSMVSDTSCTFPSGDGIFWKHWIQTKDGQCGSPLVSTRDGFIVGIHSASNFTNTNNYFTSVPKNFMELLTNQEAQQWVSGWRLNADSVLWGGHKVFMVKPEEPFQPVKEATQL [G80S], the “area with substrate ENLDFQS” value was 0.0661, the “area with substrate ENLEFQS” value was found to be 0.071, the “area with substrate ENLIFQS” value was determined as 0.0613 and the “area with substrate ENLKFQS” value stood at 0.0638. The “area with substrate ENLNFQS” value turned out to be 0.0759, the “area with substrate ENLPFQS” value came to 0.0595, the “area with substrate ENLQFQS” value amounted to 0.0665 and the “area with substrate ENLRFQS” value came to 0.0644.

MGESLFKGPRDYNPISSSICHLTNESDGHTTSLYGIGFGPFIITNKHLFRRNNGTLVVQSLHGVFKVKDTTTLQQHLVDGSDMIIIRMPKDFPPFPQKLKFREPQREERICLVTTNFQTKSMSSMVSDTSCTFPSGDGIFWKHWIQTKDGQCGSPLVSTRDGFIVGIHSASNFTNTNNYFTSVPKNFMELLTNQEAQQWVSGWRLNADSVLWGGHKVFMVKPEEPFQPVKEATQL [R81S]: the “area with substrate ENLDFQS” value turned out to be 0.0642, the “area with substrate ENLEFQS” value is 0.069, the “area with substrate ENLFFQS” value stood at 0.0486 and the “area with substrate ENLHFQS” value came to 0.0624. For the same variant, the “area with substrate ENLIFQS” value worked out at 0.0453, the “area with substrate ENLKFQS” value amounted to 0.0468, the “area with substrate ENLLFQS” value worked out at 0.0689 and the “area with substrate ENLMFQS” value amounted to 0.0711. For the same variant, the “area with substrate ENLPFQS” value is 0.0722, the “area with substrate ENLQFQS” value was 0.0583, the “area with substrate ENLRFQS” value came out at 0.073 and the “area with substrate ENLSFQS” value is 0.057. Besides, the “area with substrate ENLTFQS” value was determined as 0.0656 and the “area with substrate ENLWFQS” value is 0.0758.
